Test results taken from patent publication US20240252467A1, “TREATMENT OF MENTAL ILLNESS VIA ADMINISTRATION OF BUNTANETAP AND ANALOGUES THEREOF” (ANNOVIS BIO, INC., priority 2023, published 2024).

Assays:
[1] = test system: early AD patients, early PD patients; test: Phase 2a double-blind, placebo-controlled study in early AD and early PD patients; type: in vivo, human
[2] = Side effects / toxic dose in humans; type: in vivo, human; conditions: single oral doses above about 120 mg/day and multiple oral doses of up to 240 mg/day
APP [3] = test: APP levels in SH-SY-5Y human neuroblastoma cells (Western blot); type: cell-based; conditions: SH-SY-5Y cells, 0, 0.1, 1, 5 and 10 μM
Experimental: On the left is a Western blot showing buntanetap inhibition of APP in relation to Actin standard at concentrations of 0, 0.1, 1, 5 and 10 μM and a graph showing the same data plotted for statistical analysis purposes.

APP and its fragments [4] = test: APP and its fragments in hippocampus of APP/PS1 transgenic AD mice; type: in vivo
Text: FIG. 2, APP in vivo. […] GAPDH and Synaptophysin were loading controls. FIG. 2 also includes a collection of graphs showing relative density of APP plotted against control and time after buntanetap treatment; relative density of CTFβ plotted against control and time after buntanetap treatment; relative density of CTFα plotted against control and time after buntanetap treatment; Aβ42 levels in brain tissue plotted against control and time after buntanetap treatment; and Aβ40 levels in brain tissue plotted against control and time after buntanetap treatment. Finally, FIG. 2 also includes a Western blot showing levels of APP, NSB, CTFβ, and CTFα after buntanetap treatment over time (minutes).

mice = test: Elevated Plus-Maze Test; type: in vivo; conditions: 25 mg/kg p.o. once daily Day 1-10, 60 minutes before test
Experimental: A number of Elevated Plus-Maze Tests described by Handley and Mithani (Naunyn. Schmied. Arch. Pharmacol., 327, 1-5, 1984) were conducted in mice. The test is based on the premise that mice avoid open spaces (the open arms of an elevated plus-maze). Anxiolytics increase exploratory activity in the open arms, as indicated by increased time spent on the open arms and/or by increased % open-arm entries.
The maze consisted of 4 arms of equal length and width (14×5 cm) arranged in the form of a plus sign (+). Two opposite arms were enclosed by 12 cm high walls (closed arms). The 2 other arms had no walls (open arms). The maze is raised approximately 60 cm above the floor. A mouse was placed in the center of the plus-maze and left to explore for 5 minutes.
Buntanetap was a therapeutic agent. […] Clobazam, a therapeutic agent with confirmed anxiolytic activity, was used to validate the test.

APP/PS1 mice = test: Fear Conditioning Test; type: in vivo; conditions: 1 and 10 mg/Kg
Text: Sensory perception of electric foot shock was examined in different groups of mice through the threshold assessment test. APP/PS1 mice (i.e., the heterozygous double transgenic mice expressing both human APP (K670N:M671L) and human PS1 (M146L)) and WT mice (i.e., the Wild type, a normal healthy mouse with no deficiencies) were used.
The animals were placed in the conditioning chamber and the electric current (0.1 mA for 1 sec) was increased at 30 sec intervals from 0.1 mA to 0.7 mA.
Then, fear conditioning (FC) training was performed. Mice was placed in a conditioning chamber for 2 min before the onset of a tone (Conditioned Stimulus (CS), 30 sec, 85 dB sound at 2800 Hz). In the last 2 sec of the CS, mice was given a 2 sec, 0.7 mA mild foot shock (Unconditioned Stimulus, (US)) through the bars of the floor. After the US, the mice was left in the chamber for another 30 sec. Freezing behavior, defined as the absence of movements except for that needed for breathing, was scored using Freezeview software (Med Associates, St. Albans, VT). Contextual fear learning, a type of memory for which hippocampal function is indispensable, was evaluated 24 hrs after training by measuring freezing responses for 5 min in the same chamber where the mice were trained. Cued fear learning, a type of memory that depends on amygdala function, was evaluated 24 hrs after contextual testing. […]

[5] = test system: sAPPα, sAPPβ, Aβ42, Tau (total and phosphorylated), αSYN and inflammatory markers in CSF; conditions: MCI subjects, 10 days of administration
[6] = test system: sAPPα, sAPPβ, Aβ42, Tau (total and phosphorylated), αSYN and inflammatory markers in CSF; conditions: cited from earlier work
[7] = test system: early AD patients, early PD patients; conditions: cited from earlier work
APP [8] = conditions: neuroblastoma cells; cited from earlier work
APP and its fragments [9] = conditions: APP/PS1 transgenic mice; cited from earlier work
tau [10] = conditions: unpublished observation, Peter Davies Laboratory; cited from earlier work
tau [11] = conditions: Human tau mice; unpublished observation, Peter Davies Laboratory; cited from earlier work
αSYN [12] = conditions: neuroblastoma cells; cited from earlier work
αSYN [13] = conditions: transgenic Parkinson's animals, brain and gut; cited from earlier work
[14] = test system: retrograde axonal transport of BDNF; conditions: cited from earlier work; for flow and speed of axonal transport (FIG. 6): Down Syndrome nerve cell, treated for 48 hours
[15] = test system: fl-APP, tau phosphorylation, Rab5, pTrkB, pAkt, pERK, pCREB; conditions: cited from earlier work
TBI rats = conditions: cited from earlier work
glaucoma rats = conditions: rat acute glaucoma model, eye, cited from earlier work
APP/PS1 tg mice = conditions: hippocampus of APP/PS1 tg mice; cited from earlier work
clinical = conditions: human, brain

## CN1CC[C@]2(C)c3cc(OC(=O)Nc4ccccc4)ccc3N(C)C12 (stereo partly drawn) [buntanetap, (3aR)-1,3a,8-trimethyl-1,2,3,3a,8,8a-hexahydropyrrolo[2,3-b]indol-5-yl phenylcarbamate]
[1]; AD and PD patients, once daily dose
  crossing of the blood brain barrier: crossed the blood brain barrier
[1]; AD patients, 80 mg QD, statistical significance versus baseline but not placebo
  cognition as measured by ADAS-Cog11 and WAIS coding speed: improved cognition
[1]; PD patients, 5, 10, 20, 40, 80 mg QD
  motor function as measured by MDS-UPDRS (Part II, III, IV and total): improved at all doses motor function
[2]
  side effects (e.g., nausea and vomiting): increased incidence of side effects
APP [3]
  APP in relation to Actin standard (FIG. 1): lowers APP in vitro in a dose-dependent manner
APP and its fragments [4]; APP/PS1 transgenic AD mice
  APP and its fragments in hippocampus (FIG. 2): reduced APP and its fragments in hippocampus
APP and its fragments [4]; after the last dose
  duration of reduction of APP and all related peptides in hippocampus: at least 9 hours
mice
  open arm exploration (FIG. 8A to 8E): entered the high open arm of the maze more often, stayed longer and traveled longer distances
APP/PS1 mice
  fear (freezing): had less fear
[5]
  aggregating proteins (APP/Aβ, tau/phospho-tau, αSYN) in CSF (FIG. 3): normalized these aggregating proteins in CSF
[6]; MCI subjects, 4×60 mg/day
  levels of APP, Tau, and αSYN in CSF: normalized
[6]; MCI subjects
  CSF levels of sAPPα, sAPPβ, t-tau, p-tau, and specific inflammatory markers: significantly lowered
[6]; human CSF of MCI subjects
  inflammation: lowered inflammation
[6]; sampling period after the last dose
  duration of effect in lowering neurotoxic proteins and inflammation: ≥ 12 h
[7]; AD and PD cohorts
  Biomarker data: a trend in lowering levels of neurotoxic proteins and inflammatory factors and improving axonal integrity ad synaptic function
[7]; AD patients, 80 mg QD
  ADAS-Cog11 and WAIS coding: statistically significant improvements
[7]; PD patients, 5-80 mg QD
  MDS-UPDRS and WAIS coding: statistically significant improvements
[7]; doses up to 80 mg QD, AD and PD patients
  Safety and tolerability: well tolerated
APP [8]
  levels of APP in vitro: lowers levels of APP
APP and its fragments [9]
  levels of APP and all its fragments: lowers levels of APP and all its fragments
Tau [10]
  tau in vitro: lowers tau
Tau [11]
  tau in vivo: lowers tau
αSYN [12]
  αSYN in vitro: lowers αSYN
αSYN [13]
  αSYN in vivo: lowers αSYN
[14]
  flow and speed of axonal transport (FIG. 6): full recovery of axonal transport
[14]; listed as butanetap
  flow and speed of axonal transport (FIG. 6): improves the flow and speed of axonal transport
[14]; Ts65Dn cortical neurons, 5 μM for 48 hours
  retrograde axonal transport of BDNF in cortical neurons: rescued the deficit
[15]; Ts65Dn brains
  levels of pTrkB, pAkt, pERK, and pCREB: restored the levels
[15]; Ts65Dn mice, 50 mg/kg/d i.p.
  fl-APP: significantly reduced fl-APP
  tau (two bands quantified together), vehicle versus buntanetap: no statistically significant difference
[15]; Ts65Dn mice, immunoblotting
  phosphorylation of tau on Thr231 and PHF1 epitopes: reduced phosphorylation of tau
[15]; in vivo, Ts65Dn mice
  activity of Rab5: restored normal activity of Rab5
TBI rats; rat brain after TBI
  inflammation: lowered inflammation
TBI rats; rat model of traumatic brain injury
  dopaminergic neuropathology and working memory: improves dopaminergic neuropathology and working memory
TBI rats; rat striatum after TBI
  synaptic transmission: Normalized impaired synaptic transmission
TBI rats; rat substantia nigra after TBI
  protection of nerve cells: protected nerve cells
Glaucoma rats
  protection of nerve cells: protected nerve cells
Glaucoma rats; listed as Butanetap
  protection of nerve cells: protects nerve cells from dying
APP/PS1 tg mice
  synaptic transmission: Normalized impaired synaptic transmission
clinical
  Kp: ~8

Where two headings read alike, the source gives them in different places.
